# Test results published in PubChem BioAssay AID488969 (Vanderbilt High Throughput Screening Facility, 2010).
# The full ranking holds about 110,000 compounds; the median of “z-score” is about -0.1, and the highest 2% start at about 2. The list shows a part of the results. Active and inactive are the calls of the source.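 The calls were made as follows: active = z-score in the third read window above 3 or below -3; inactive = the rest.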
# Molecular target: Metabotropic glutamate receptor 8 (Rattus norvegicus) (UniProt P70579)
# Sequence of UniProt P70579 (P70579 whole entry, looked up): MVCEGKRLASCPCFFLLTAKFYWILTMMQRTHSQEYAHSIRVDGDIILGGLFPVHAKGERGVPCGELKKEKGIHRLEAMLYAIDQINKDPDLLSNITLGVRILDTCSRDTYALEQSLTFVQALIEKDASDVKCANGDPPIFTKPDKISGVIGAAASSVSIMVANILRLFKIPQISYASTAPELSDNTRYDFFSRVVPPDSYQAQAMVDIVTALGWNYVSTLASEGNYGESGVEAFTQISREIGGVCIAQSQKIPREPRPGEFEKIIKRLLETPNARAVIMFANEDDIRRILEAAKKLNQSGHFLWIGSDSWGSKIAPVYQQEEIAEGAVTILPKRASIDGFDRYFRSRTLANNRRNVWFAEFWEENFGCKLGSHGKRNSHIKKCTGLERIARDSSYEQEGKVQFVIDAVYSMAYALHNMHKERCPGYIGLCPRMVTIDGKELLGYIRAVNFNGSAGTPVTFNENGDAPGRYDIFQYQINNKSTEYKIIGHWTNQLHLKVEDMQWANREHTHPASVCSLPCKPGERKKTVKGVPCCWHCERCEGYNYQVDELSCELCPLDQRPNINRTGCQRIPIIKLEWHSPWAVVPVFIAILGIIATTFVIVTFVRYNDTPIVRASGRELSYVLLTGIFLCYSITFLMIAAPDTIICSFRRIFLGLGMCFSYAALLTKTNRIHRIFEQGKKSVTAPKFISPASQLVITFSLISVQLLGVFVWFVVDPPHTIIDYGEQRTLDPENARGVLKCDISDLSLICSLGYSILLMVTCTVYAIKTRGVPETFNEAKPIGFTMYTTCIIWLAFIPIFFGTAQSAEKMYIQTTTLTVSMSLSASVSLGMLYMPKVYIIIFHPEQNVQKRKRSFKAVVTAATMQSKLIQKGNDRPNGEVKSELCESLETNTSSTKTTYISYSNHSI
# Assay: mGluR8 Gi/Go-coupled signaling modulation – cell-based, rat, thallium flux, HTS, primary screen (AID 488969)
# Settings: HEK293 rat mGluR8, GIRK (G protein-gated inwardly rectifying potassium channel) thallium flux, FluoZin2; at 10 µM; stronger effect = higher value; submaximal glutamate (EC20) added with thallium
row,Structure (SMILES),z-score
1,COc1ccc(/C=N/NC(=O)c2csc(-n3nc(C)cc3C(F)(F)F)n2)cc1,-0.25
2,c1ccc(C(c2ccccc2)N2CCN(c3nc4ccccc4n4cnnc34)CC2)cc1,-0.222
3,O=c1oc2ccccc2c2c1SC(C(F)(F)F)C2 (stereo not given),-0.38
4,FC(F)(F)c1cc(-c2ccc(Cl)cc2)nc2ncnn12,-0.345
5,CCN(Cc1nc2cc(OC)c(OC)cc2c(=O)[nH]1)C(=O)c1ccc(S(=O)(=O)N(C)C)cc1,0.224
6,CC(C)N=c1scc(-c2cccs2)n1/N=C/c1ccc(O)c(O)c1O,active: 4.07
7,CCC(C)(C)NCC(=O)Nc1ccc(OC(F)(F)F)cc1,0.686
8,COCCCNC(=O)/C(=C\c1cccn1C)NC(=O)c1cccs1,0.0671
9,CS(=O)(=O)c1ccccc1-c1nc(-c2ccc(C(F)(F)F)cc2)no1,0.192
10,Cc1ccc(C)n1NC(=O)c1cccc(Cl)c1,-0.0187
11,CCc1cccc(CC)c1NC(=O)CN1CC(C)SC1=NC1CCCCC1 (stereo not given),0.24
12,O=C(CSc1nnc2ccccn12)c1ccccc1,0.709
13,CN(C)C(=O)c1ccc(NC(=O)c2ccccc2Sc2ccccc2C#N)cc1,-0.228
14,COc1ccc(NC(C)=O)cc1NC(C)C(=O)Nc1cc(C(F)(F)F)ccc1N1CCOCC1 (stereo not given),-0.963
15,Cc1ccc(C(=O)Nc2nnc(-c3ccc(C(C)(C)C)cc3)s2)cc1,-1.03
16,CCOC(=O)C1CCN(C(=O)COc2ccc(S(=O)(=O)NC(C)C)cc2Cl)CC1,-0.688
17,O=C(Nc1ccc2c(c1)OCO2)C1CCCCN1S(=O)(=O)c1ccccc1 (stereo not given),0.395
18,CCc1noc(C)c1C(=O)Nc1ncc(C)s1,-0.483
19,Cc1nc(NC(=O)c2ccc(-c3cc4ccccc4oc3=O)cc2)ccc1Br,-0.171
20,COc1cccc(CN2C(=O)c3cccc(N)c3C2=O)c1,-0.546
21,NS(=O)(=O)c1cccnc1Nc1cccc(C(F)(F)F)c1,-0.118
22,O=c1c2cccnc2[nH]c(=S)n1CCCN1CCN(c2ccc(F)cc2)CC1,0.723

row,Structure (SMILES),z-score
1,COC(=O)NNC(=O)C12CC3CC(CC(C3)C1)C2,-0.252
2,O=C(NCc1cc(C(F)(F)F)cc(C(F)(F)F)c1)C1CC(c2cccc([N+](=O)[O-])c2)=NO1 (stereo not given),0.044
3,N#Cc1nc(Cc2ccccc2)oc1N1CCN(c2ccccc2)CC1,0.123
4,COc1ccc(C(C)=O)cc1COC(=O)Cc1n[nH]c(=O)c2ccccc12,-0.504
5,CCOC(=O)CSc1nnc(Cc2ccccc2)n1Cc1ccco1,0.297
6,Cc1cc(C)cc(OCC(=O)OCC(=O)Nc2ccc(Cl)cn2)c1,0.582
7,COc1cccc(OCC(O)CN2CCN(CCO)CC2)c1 (stereo not given),0.428
8,Cc1ccc2nsnc2c1S(=O)(=O)NCc1cccnc1,-0.00044
9,CC(=O)C1=C(O)C(=O)N(c2ccc(C(=O)O)cc2)C1c1ccccc1 (stereo not given),-0.312
10,Cc1sc(-c2ccccn2)nc1OC(=O)c1ccc(Cl)c(Cl)c1,0.0343
11,C=CCn1c(Cc2cccs2)nnc1SC/C=C/c1ccccc1,-1.31
12,Cc1cccc(OCCC(=O)Nc2ccc(C)c(S(=O)(=O)N3CCCCC3)c2)c1,-0.857
13,Cc1cc(Cl)c(S(=O)(=O)Nc2ccon2)cc1OCC(=O)NC1CCCCC1,-0.226
14,Cc1[nH]nc2c1C(Cc1ccccc1)C(C#N)=C(N)O2 (stereo not given),-0.192
15,Cc1ccc(S(=O)(=O)N2CCCC2C(=O)N2CCCCCC2)cc1 (stereo not given),0.624
16,COC(=O)c1cc2sccc2n1CC(=O)Nc1cc(OC)cc(OC)c1,-0.244
17,CCOC(=O)C1CCN(C(=O)Nc2ccc3nc(C)c(C)nc3c2)CC1,-0.346
18,O=C(CSc1nncs1)Nc1ccc(Cl)cn1,0.879
19,CC(=O)Oc1ccc(C(=O)Nc2ccccc2C(=O)NCC(C)C)cc1,-0.069
20,CCCn1nc2cc(C(=O)NCc3ccc(OC)cc3)ccc2c1OCC,-0.298
21,CN(C)S(=O)(=O)N1CCCN(S(=O)(=O)N(C)C)CC1,-0.47
22,COc1ccc(C2c3c(ncn(Cc4ccco4)c3=N)Oc3ccc4ccccc4c32)cc1 (stereo not given),-0.169

row,Structure (SMILES),z-score
1,CC(Sc1nc2cc(Cl)ccc2s1)C(=O)Nc1cccc(S(=O)(=O)N2CCOCC2)c1 (stereo not given),-1.56
2,CCOc1ccc2[nH]c(=O)c(CN(Cc3ccccc3OC)C(=O)c3ccccc3)cc2c1,-0.571
3,O=C(CSC1=NC(=O)C(c2ccccc2)C(=O)N1)Nc1cccc(Cl)c1 (stereo not given),-0.477
4,Cc1ccc(C(c2nnnn2C(C)(C)C)N2CCC(C)CC2)cc1 (stereo not given),-0.301
5,COc1cc(Cl)cc(C#N)c1OCC(=O)O,0.0117
6,Cc1nc2nc3c(cn2n1)C(=O)CCC3,0.0584
7,Cc1cccc(NC(=O)CCCSc2nc3ccccc3[nH]2)c1,-0.764
8,CCOC(=O)c1[nH]cnc1C(=O)Nc1ccncc1,0.161
9,COc1ccc(N2C(=O)c3ccc(C(=O)OC(C)C)cc3C2=O)cc1,-0.374
10,CCN(CC)c1ccc(/C=N/OCC(=O)Nc2cccc(C)c2)cc1,0.0156
11,O=C(C1CCC(CNS(=O)(=O)c2cccc3cccnc23)CC1)N1CCc2ccccc21 (stereo not given),-0.0229
12,O=C1C2C3C=CC(CC3)C2C(=O)N1/N=C/c1ccc(O)c(O)c1 (stereo not given),-0.0912
13,Cc1ccc(NC(=O)CCC(=O)NNC(=O)/C=C/C(=O)O)c(C)c1,-0.0638
14,COc1cc(C(=O)NC(=S)Nc2ccc(NC(=O)c3ccco3)cc2)cc(OC)c1OC,-0.379
15,Cc1ccc(NC2c3ncccc3C(=O)N2C2CCCCC2)cc1 (stereo not given),-0.988
16,Cc1ccc2c(C)nc(Nc3ncc4c(n3)CCCC4=O)nc2c1,-0.118
17,Cc1cc(C)c(C#N)c(SCc2ccccc2C(=O)O)n1,0.198
18,COc1ccc(OC)c(NS(=O)(=O)c2ccc(NC(C)=O)cc2)c1,-0.311
19,CCCOc1ccc2oc(=O)c3c(c2c1)CCCN3C(=O)CN1CCc2ccccc2C1,0.268
20,O=C(/C=C\NCC(=O)c1ccccc1)c1ccccc1,-0.0328
21,CC[N+]1(CC)CC2=Cc3c(ccc4ccccc34)CC2C1 (stereo not given),-0.386
22,COc1ccc(CNC(=O)CSc2nnc3c(Cl)cc(C(F)(F)F)cn23)cc1OC,-0.498

row,Structure (SMILES),z-score
1,C/C(=N/OCC(=O)Nc1ccccc1)c1cccs1,-0.0392
2,CCOC(=O)CN(C#N)c1nc(C)cc(C)n1,0.22
3,CCOCCCNC(=O)C(Cc1ccccc1)NC(=O)c1ccco1 (stereo not given),-0.543
4,CC1CCCC(C)N1/N=C/c1ccc(Cl)cc1 (stereo not given),-0.0895
5,C=CCN1C(=O)C(Cc2ccccc2)S/C1=N/N=C/c1cccs1 (stereo not given),-0.302
6,CCC1CCCCN1CCNC(=O)CNS(=O)(=O)c1ccc2nc(C)sc2c1 (stereo not given),-0.511
7,CC1CN(c2ccc([N+](=O)[O-])cc2C(=O)N2CCOCC2)CC(C)N1 (stereo not given),-0.364
8,Cc1cccc(C)c1Nc1nnc(SCC(=O)c2ccc3c(c2)NC(=O)CO3)s1,-0.162
9,Cc1cc(NC(=O)c2ccc(S(=O)(=O)N3CCCC3)cc2)nc2c1c(=O)oc1ccccc12,0.442
10,Cn1cc(CC(=O)NCCCN2CCCC2)c2ccccc21,0.206
11,NC(=O)NC(c1ccccc1)c1cccc2ccccc12 (stereo not given),-0.241
12,CCCCOCCCNC(=O)N[C@@H](CC(C)C)C(=O)O,0.0102
13,CC(C)CSc1ncnc2c1oc1nc3c(cc12)COC(C)(C)C3,0.0119
14,CC(=O)c1cccc(NC(=O)Nc2ccc3c(c2)N(C)C(=O)CS3)c1,-0.749
15,CCN(C(=O)COC(=O)c1cc(-c2ccccc2)nc2c1c(C)nn2-c1ccc(C)cc1)C1CCS(=O)(=O)C1 (stereo not given),0.887
16,Cc1ccc(-c2nc(CCN3C(=O)c4ccccc4C3=O)cs2)cc1,-0.242
17,CCCC(=O)Nc1nnc(Sc2ccc(N(C)C)cc2)s1,0.952
18,COc1ccc(C2C(C(=O)O)CC(=O)N2c2ccc(OC)cc2)cc1 (stereo not given),-0.728
19,COc1ccc(C2C(=O)N(CCc3ccccc3)CC(=O)N2C2CCCCC2)cc1 (stereo not given),-0.422
20,CSc1ccccc1NC(=O)C1CC(c2ccccc2O)=NO1 (stereo not given),-0.288
21,Cn1c(=O)c2c(nc(SCCCC#N)n2Cc2ccccc2F)n(C)c1=O,-0.419
22,CC(=O)Cc1nsc(NC(=O)c2c(-c3ccccc3Cl)noc2C)n1,0.444

row,Structure (SMILES),z-score
1,O=C1CCCc2c1[nH]c1ccc(Cl)cc21,-0.298
2,Cc1nnc(Nc2ccc3c(c2)ncn3C)c2ccccc12,-0.24
3,Cc1ccn2c(C(=O)N/N=C\c3cccs3)c(C)nc2c1,-0.0139
4,O=C(c1ccncc1)c1ccc(Br)cc1,-0.0674
5,Cc1ccc(S(=O)(=O)N(CC(=O)N2CCN(c3ccc(F)cc3)CC2)C2CCCCC2)cc1,0.14
6,O=C(NCc1cccs1)c1nc2c(nnn2Cc2ccc(F)cc2)c(=O)[nH]1,-1
7,CC(C)N1C(=O)CC2(CC[N+](C)(CCOC(=O)C(c3ccccc3)c3ccccc3)CC2)C1=O (stereo not given),0.1
8,CCOC(=O)c1sc(NC(=O)c2ccc(S(=O)(=O)N3CCOCC3)cc2)nc1-c1ccccc1,-0.49
9,COc1cc(OC)c(C(=O)OC(C)C(=O)Nc2cc(C(F)(F)F)ccc2Cl)cc1OC (stereo not given),-0.296
10,O=C(O)CCC(=O)NNC(=O)c1ccc(Br)cc1,-0.149
11,COc1cc(OC)cc(OCC(O)Cn2ccnc2C)c1 (stereo not given),0.18
12,CN(C)c1nc(OCCNC(=O)COc2ccccc2Cl)nc(N(C)C)n1,-0.751
13,COc1ccc(CN(C)C(C)C(=O)Nc2ccc([N+](=O)[O-])cc2Cl)cc1OC (stereo not given),-0.15
14,O=C(O)CN1C(=O)CNC1=O,0.44
15,C/C(=N\NC(=O)c1ccn[nH]1)c1cn(C)nc1C,-0.0601
16,Cc1ccc(C(=O)c2cnc3cc4c(cc3c2S(=O)(=O)c2ccccc2)OCCO4)cc1,-0.361
17,O=C(Nc1ccccc1)c1ccc(S(=O)(=O)N2CCOCC2)cc1,0.477
18,COc1ccc(OC)c(C2CC(c3c(-c4ccccc4)c4cc(Cl)ccc4[nH]c3=O)=NN2S(C)(=O)=O)c1 (stereo not given),0.273
19,COc1ccc(CCNC(=O)CSc2nc(O)c(CCC(C)C)c(=O)[nH]2)cc1OC,-0.227
20,O=C1CCC(C(=O)NCCCn2ccnc2)N1 (stereo not given),-0.292
21,Cc1cc(N2CCCC2=O)cc(C)c1S(N)(=O)=O,-0.00592
22,COC(=O)C(/C=N/OCc1ccc([N+](=O)[O-])cc1)NC(=O)c1cccc(Cl)c1 (stereo not given),0.162
